This note sets out measurements from the antibiotic and cytotoxicity screens of Wong et al. (2023).

Some of the results follow.

The subject of the test is HepG2. Put plainly: cytotoxicity call (relative viability < 0.9). The following applies: 10 µM.
As to `C[C@@H]1CN([C@@H](C)CO)C(=O)c2cc(C#CCN(C)C)cnc2O[C@@H]1CN(C)C(=O)c1ccc2c(c1)OCO2`, the cytotoxicity call was “inactive”. In the case of `Cc1ccc(S(=O)(=O)Nc2cccc3c2O[C@@H](CN(C)Cc2ccc(C(F)(F)F)cc2)[C@H](C)CN([C@H](C)CO)C3=O)cc1` it was “inactive”; in that of `C[C@@H]1CCCCO[C@@H](CN(C)S(C)(=O)=O)[C@@H](C)CN([C@H](C)CO)C(=O)c2cc(N(C)C)ccc2O1`, “inactive”; in that of `C[C@@H]1CN([C@@H](C)CO)C(=O)c2cccc(NC(=O)Nc3ccc(C(F)(F)F)cc3)c2O[C@@H]1CN(C)C(=O)Nc1ccc(F)cc1`, “inactive”.

With `C[C@H](CO)N1C[C@H](C)[C@@H](CN(C)C(=O)Nc2cccc3ccccc23)Oc2ccc(NC(=O)Nc3ccc(F)cc3)cc2CC1=O`, the cytotoxicity call is “inactive”. As for `CCCCCCCCCCCCCCCCOc1nc2ccc(C)cc2c(=O)o1`, the cytotoxicity call was “inactive”. On to `C[C@@H]1CN([C@@H](C)CO)C(=O)c2cccc(NC(=O)Nc3ccc(F)cc3)c2O[C@H]1CN(C)Cc1ccc(-c2ccccc2)cc1`, for which the cytotoxicity call is “inactive”. In the case of `C[C@@H]1CN([C@H](C)CO)S(=O)(=O)c2ccc(C#CC(C)(C)O)cc2O[C@@H]1CN(C)Cc1ccc(F)cc1`, the cytotoxicity call is “inactive”. In the case of `O=C(O)CCSC[C@@H]1O[C@H]2O[C@@H]3[C@@H](O)[C@H](O)[C@H](O[C@@H]4[C@@H](O)[C@H](O)[C@H](O[C@@H]5[C@@H](O)[C@H](O)[C@H](O[C@@H]6[C@@H](O)[C@H](O)[C@H](O[C@@H]7[C@@H](O)[C@H](O)[C@H](O[C@@H]8[C@@H](O)[C@H](O)[C@H](O[C@@H]9[C@@H](O)[C@H](O)[C@H](O[C@@H]1[C@@H](O)[C@@H]2O)O[C@H]9CSCCC(=O)O)O[C@H]8CSCCC(=O)O)O[C@H]7CSCCC(=O)O)O[C@H]6CSCCC(=O)O)O[C@H]5CSCCC(=O)O)O[C@H]4CSCCC(=O)O)O[C@H]3CSCCC(=O)O` it was “inactive”.
